Measurements reported in the antibiotic and cytotoxicity screens of Wong et al. (2023).
This is one part of the list.

Columns and labels:
HSkMC = human skeletal muscle cells; assay: cytotoxicity call (relative viability < 0.9); details: 10 µM
S. aureus RN4220 = assay: growth inhibition call (relative growth <= 0.2); details: 50 µM

## CC(C)N1C[C@H](C)[C@@H](CN(C)Cc2ccc(Oc3ccccc3)cc2)Oc2c(cccc2-c2nn[nH]n2)C1=O
HSkMC
  cytotoxicity call: inactive
S. aureus RN4220
  growth inhibition call: inactive

## C[C@@H]1CN([C@@H](C)CO)C(=O)c2cccc(NC(=O)Nc3cccc4ccccc34)c2O[C@H]1CN(C)S(=O)(=O)c1ccccc1F
HSkMC
  cytotoxicity call: inactive
S. aureus RN4220
  growth inhibition call: inactive

## C[C@@H]1CN([C@@H](C)CO)C(=O)c2cc(NS(=O)(=O)c3ccc(Cl)cc3)ccc2O[C@@H](C)CCCCO[C@@H]1CN(C)Cc1ccc2c(c1)OCO2
HSkMC
  cytotoxicity call: inactive
S. aureus RN4220
  growth inhibition call: inactive

## C[C@@H]1CCCCO[C@@H](CN(C)C(=O)NC2CCCCC2)[C@H](C)CN([C@H](C)CO)C(=O)c2cc(NS(=O)(=O)c3ccc(Cl)cc3)ccc2O1
HSkMC
  cytotoxicity call: inactive
S. aureus RN4220
  growth inhibition call: inactive

## O=C(C[C@@H]1CC[C@H]2[C@@H](COC[C@H](O)CN2C(=O)Nc2cccc(F)c2)O1)NCCCN1CCOCC1
HSkMC
  cytotoxicity call: inactive
S. aureus RN4220
  growth inhibition call: inactive

## COc1ccc(NC(=O)Nc2ccc3c(c2)C(=O)N([C@@H](C)CO)C[C@@H](C)[C@@H](CN(C)S(=O)(=O)c2ccc(OC)cc2)OCCCC[C@H](C)O3)cc1
HSkMC
  cytotoxicity call: inactive
S. aureus RN4220
  growth inhibition call: inactive

## C[C@H](CO)N1C[C@H](C)[C@H](CN(C)Cc2ccc(Oc3ccccc3)cc2)Oc2ncc(-c3cccnc3)cc2C1=O
HSkMC
  cytotoxicity call: inactive
S. aureus RN4220
  growth inhibition call: inactive

## C[C@@H]1CCCCO[C@@H](CN(C)S(=O)(=O)c2cccs2)[C@H](C)CN([C@@H](C)CO)C(=O)c2cc(NC(=O)Nc3ccccc3)ccc2O1
HSkMC
  cytotoxicity call: inactive
S. aureus RN4220
  growth inhibition call: inactive

## C[C@@H]1CN([C@H](C)CO)C(=O)Cc2cc(NC(=O)C3CCCCC3)ccc2O[C@@H]1CN(C)Cc1ccc(Cl)c(Cl)c1
HSkMC
  cytotoxicity call: active
S. aureus RN4220
  growth inhibition call: inactive

## C[C@H]1CN([C@@H](C)CO)C(=O)Cc2cc(NC(=O)Cc3cn(C)c4ccccc34)ccc2O[C@@H]1CN(C)Cc1ccc(Cl)c(Cl)c1
HSkMC
  cytotoxicity call: active
S. aureus RN4220
  growth inhibition call: inactive

## C[C@@H]1CN([C@@H](C)CO)C(=O)c2cc(NC(=O)NC3CCCCC3)ccc2O[C@H]1CN(C)Cc1ccc(Cl)c(Cl)c1
HSkMC
  cytotoxicity call: inactive
S. aureus RN4220
  growth inhibition call: inactive

## C[C@@H]1CN([C@@H](C)CO)C(=O)c2cccc(NC(=O)NC3CCCCC3)c2O[C@@H]1CN(C)Cc1ccc(Oc2ccccc2)cc1
HSkMC
  cytotoxicity call: inactive
S. aureus RN4220
  growth inhibition call: inactive

## C[C@H]1CN([C@@H](C)CO)C(=O)c2cc(NC(=O)C3CC3)ccc2O[C@H]1CN(C)C(=O)NC1CCCCC1
HSkMC
  cytotoxicity call: inactive
S. aureus RN4220
  growth inhibition call: inactive

## CC1(O)CCC(C(C)(C)O)CC1.O (centres undefined)
HSkMC
  cytotoxicity call: inactive
S. aureus RN4220
  growth inhibition call: inactive

## O=C(NCc1nc2ccccc2[nH]1)C1=C[C@H](c2ccc(Br)cc2)C[C@H](OCc2ccc(CO)cc2)O1
HSkMC
  cytotoxicity call: inactive
S. aureus RN4220
  growth inhibition call: inactive

## COc1ccc(CN2C[C@H](C)[C@@H](OC)CN(C)C(=O)c3cc(NC(=O)c4nc5ccccc5s4)ccc3OC[C@@H]2C)cc1
HSkMC
  cytotoxicity call: inactive
S. aureus RN4220
  growth inhibition call: inactive

## CN(C)CCCNC(=O)C[C@@H]1CC[C@H]2[C@@H](COc3ccc(NC(=O)c4cccc(F)c4)cc3C(=O)N2C)O1
HSkMC
  cytotoxicity call: inactive
S. aureus RN4220
  growth inhibition call: inactive

## CC(C)(C)CC(C)(C)c1cc(Cc2cc(C(C)(C)CC(C)(C)C)cc(-n3nc4ccccc4n3)c2O)c(O)c(-n2nc3ccccc3n2)c1
HSkMC
  cytotoxicity call: inactive
S. aureus RN4220
  growth inhibition call: inactive

## CC(C)NC(=O)Nc1ccc2c(c1)C(=O)N([C@@H](C)CO)C[C@H](C)[C@@H](CN(C)C(=O)Nc1ccc(F)cc1)OCCCC[C@@H](C)O2
HSkMC
  cytotoxicity call: inactive
S. aureus RN4220
  growth inhibition call: inactive

## C[C@@H]1CN([C@H](C)CO)C(=O)c2cccc(NC(=O)C3CCOCC3)c2O[C@@H]1CN(C)S(=O)(=O)c1ccccc1
HSkMC
  cytotoxicity call: inactive
S. aureus RN4220
  growth inhibition call: inactive

## CNC(=O)Nc1ccc(S(N)(=O)=O)cc1
HSkMC
  cytotoxicity call: inactive
S. aureus RN4220
  growth inhibition call: inactive

## COc1ccc(S(=O)(=O)N(C)C[C@H]2OCCCC[C@@H](C)Oc3ccc(NC(=O)Nc4ccc5c(c4)OCO5)cc3C(=O)N([C@H](C)CO)C[C@@H]2C)cc1
HSkMC
  cytotoxicity call: inactive
S. aureus RN4220
  growth inhibition call: inactive

## Cc1noc(C)c1NC(=O)Nc1ccc2c(c1)C(=O)N([C@H](C)CO)C[C@H](C)[C@H](CN(C)C(=O)C1CCCCC1)OCCCC[C@@H](C)O2
HSkMC
  cytotoxicity call: inactive
S. aureus RN4220
  growth inhibition call: inactive

## COCC#Cc1ccc2c(c1)O[C@H](CN(C)C(=O)Nc1ccc(OC)cc1)[C@H](C)CN([C@H](C)CO)S2(=O)=O
HSkMC
  cytotoxicity call: inactive
S. aureus RN4220
  growth inhibition call: inactive

## CC/N=C1\S[C@@H](CC(=O)NC)C(=O)N1CC
HSkMC
  cytotoxicity call: inactive
S. aureus RN4220
  growth inhibition call: inactive

## NCCCC[C@@H](N)C(=O)N[C@@H](Cc1ccc(O)cc1)C(=O)N[C@@H](CCCCN)C(=O)O
HSkMC
  cytotoxicity call: inactive
S. aureus RN4220
  growth inhibition call: inactive

## C=CCCCCCCCCC(=O)Nc1ccccc1C
HSkMC
  cytotoxicity call: inactive
S. aureus RN4220
  growth inhibition call: inactive
